Test results: paper PMC9911399, “Two distinct binding modes provide the RNA-binding protein RbFox with extraordinary sequence specificity”
Where a chain is given by its changes, count along the chain named. This is one part of the list.

B1: UGCCGUG (DNA:RNA)
RNA: GGGAGACCGGAAUUCAGAUUGUCCUGCCGUGUUAAAUCCCGUCGUAGCCACCA
DNA 1: CAATCTGAATTCCGGTCTCCC
DNA 2: TGGTGGCTACGACGGGATT
B2: UAUCUCC (DNA:RNA)
RNA: B1 RNA with G26A, C27U, G29U, U30C, G31C
DNA 1: CAATCTGAATTCCGGTCTCCC
DNA 2: TGGTGGCTACGACGGGATT
B3: GGUGAAU (DNA:RNA)
RNA: B1 RNA with U25G, C27U, C28G, G29A, U30A, G31U
DNA 1: CAATCTGAATTCCGGTCTCCC
DNA 2: TGGTGGCTACGACGGGATT
B4: AAAUUCG (DNA:RNA)
RNA: B1 RNA with U25A, G26A, C27A, C28U, G29U, U30C
DNA 1: CAATCTGAATTCCGGTCTCCC
DNA 2: TGGTGGCTACGACGGGATT
B5: CUGGUAG (DNA:RNA)
RNA: B1 RNA with U25C, G26U, C27G, C28G, G29U, U30A
DNA 1: CAATCTGAATTCCGGTCTCCC
DNA 2: TGGTGGCTACGACGGGATT
B6: GUGGCUC (DNA:RNA)
RNA: B1 RNA with U25G, G26U, C27G, C28G, G29C, G31C
DNA 1: CAATCTGAATTCCGGTCTCCC
DNA 2: TGGTGGCTACGACGGGATT
B7: GACUCUC (DNA:RNA)
RNA: B1 RNA with U25G, G26A, C28U, G29C, G31C
DNA 1: CAATCTGAATTCCGGTCTCCC
DNA 2: TGGTGGCTACGACGGGATT
B8: UUCAUAG (DNA:RNA)
RNA: B1 RNA with G26U, C28A, G29U, U30A
DNA 1: CAATCTGAATTCCGGTCTCCC
DNA 2: TGGTGGCTACGACGGGATT
B9: UGUUGUU (DNA:RNA)
RNA: B1 RNA with C27U, C28U, G31U
DNA 1: CAATCTGAATTCCGGTCTCCC
DNA 2: TGGTGGCTACGACGGGATT

biological target: T1, RBFOX1 RRM (Homo sapiens, UniProt Q9NWB1 109-208); test: EMSA; HiTS-Eq, 1 nM pool, 10 min; buffer printed only for the single-RNA assays: 10 mM Tris pH 7.5, 150 mM NaCl, 3.4 mM EDTA, 0.001% NP-40, 30 C; conditions: tags: His6 N-terminal (pET28a); label: 5' 32P
T1 sequence: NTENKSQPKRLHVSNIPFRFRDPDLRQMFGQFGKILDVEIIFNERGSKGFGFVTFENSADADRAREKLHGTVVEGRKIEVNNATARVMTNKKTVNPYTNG
Outline: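 A pool of RNA with 7 randomized nucleotides, 5′-radiolabelled and with DNA-annealed flanks, was equilibrated at 1 nM for 10 min in 50 µL with purified RbFox RRM, wild type or mutant, across increasing protein concentrations. Free RNA was separated by 8% native PAGE, excised, reverse-transcribed, barcoded by PCR and sequenced. Relative association constants were obtained from read-count changes of each RNA species versus the control reaction and normalised to the cognate motif.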

For B1, which binding signal is on record?
The binding signal was 0.0271 KA relative to UGCAUGU.

For B2, which binding signal is on record?
The binding signal was 0.00352 KA relative to UGCAUGU.

With B3 as the binder, how does the binding signal read?
The binding signal was 0.0155 KA relative to UGCAUGU.

B4 was tested. Which binding signal did it give?
The binding signal was 0.0102 KA relative to UGCAUGU.

Which binding signal does the source give for B5 here?
The binding signal was 0.0238 KA relative to UGCAUGU.

For B6, which binding signal is on record?
The binding signal was 0.0226 KA relative to UGCAUGU.

Which binding signal does the source give for B7 here?
The binding signal was 0.0119 KA relative to UGCAUGU.

How did the binding signal turn out when B8 was run?
The binding signal was 0.0077 KA relative to UGCAUGU.

Which binding signal does the source give for B9 here?
Its binding signal is 0.0248 KA relative to UGCAUGU.
